Assay results reported in US20170218087A1.

Biological target: cell surface TrkA on the human erythroleukemic cell line TF-1 (human), P04629
Assay: cell-based or functional assay

cell surface TrkA on the human erythroleukemic cell line TF-1 (human), P04629, sequence (P04629 33-796): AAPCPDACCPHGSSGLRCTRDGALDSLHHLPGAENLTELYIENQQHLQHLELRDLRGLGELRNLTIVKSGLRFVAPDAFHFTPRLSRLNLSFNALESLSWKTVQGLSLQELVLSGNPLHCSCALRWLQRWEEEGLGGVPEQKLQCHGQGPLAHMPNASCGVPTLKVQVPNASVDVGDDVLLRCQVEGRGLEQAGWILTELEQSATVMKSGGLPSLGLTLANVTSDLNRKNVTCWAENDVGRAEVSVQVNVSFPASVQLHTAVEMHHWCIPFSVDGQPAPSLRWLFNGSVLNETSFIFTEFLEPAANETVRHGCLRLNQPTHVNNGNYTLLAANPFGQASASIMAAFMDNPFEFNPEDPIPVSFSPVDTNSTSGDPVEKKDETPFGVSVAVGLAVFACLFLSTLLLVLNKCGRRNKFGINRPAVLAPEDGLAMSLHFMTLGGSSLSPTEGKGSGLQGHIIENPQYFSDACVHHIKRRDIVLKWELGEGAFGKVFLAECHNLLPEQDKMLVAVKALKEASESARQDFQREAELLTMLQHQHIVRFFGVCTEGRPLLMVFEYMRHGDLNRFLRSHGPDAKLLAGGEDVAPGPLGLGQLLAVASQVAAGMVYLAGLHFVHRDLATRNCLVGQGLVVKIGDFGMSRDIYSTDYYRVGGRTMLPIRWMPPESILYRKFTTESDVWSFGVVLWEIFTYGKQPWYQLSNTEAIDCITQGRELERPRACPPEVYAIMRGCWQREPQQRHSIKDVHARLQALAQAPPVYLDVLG

Binder	TF-1 cell proliferation assay IC50 (NGF-induced)	TF-1 cell proliferation assay, potency relative to BXhVH5VL1	TF-1 cell proliferation assay, potency relative to MNAC13
GBR VH5(V37A)VL1 (antibody, human IgG1, kappa) heavy: EVKLLESGGGLVQPGGSLRLSCAASGFTFSTYTMSWARQTPGKRLEWVAYISKGGGSTYYPDTVKGRFTISRDNSKNTLYLQMNSLRAEDTAVYYCARGAMYGNDFFYPMDYWGQGTTVTVSS[human IgG1 constant region not listed] light: EIVLTQSPATLSLSPGERATLSCSASSSVSYMHWYQQKPGQAPRLLIYTTSNLASGIPARFSGSGSGTDFTLTISSLEPEDFAVYYCHQWSSYPWTFGQGTKLEIKRTVAAPSVFIFPPSDEQLKSGTASVVCLLNNFYPREAKVQWKVDNALQSGNSQESVTEQDSKDSTYSLSSTLTLSKADYEKHKVYACEVTHQGLSSPVTKSFNRGEC	0.075 µg/mL	10 fold	3 fold
BXhVH5VL1 (antibody, human IgG1, kappa) heavy: EVKLLESGGGLVQPGGSLRLSCAASGFTFSTYTMSWVRQTPGKRLEWVAYISKGGGSTYYPDTVKGRFTISRDNSKNTLYLQMNSLRAEDTAVYYCARGAMYGNDFFYPMDYWGQGTTVTVSS[human IgG1 constant region not listed] light: EIVLTQSPATLSLSPGERATLSCSASSSVSYMHWYQQKPGQAPRLLIYTTSNLASGIPARFSGSGSGTDFTLTISSLEPEDFAVYYCHQWSSYPWTFGQGTKLEIKRTVAAPSVFIFPPSDEQLKSGTASVVCLLNNFYPREAKVQWKVDNALQSGNSQESVTEQDSKDSTYSLSSTLTLSKADYEKHKVYACEVTHQGLSSPVTKSFNRGEC	0.73 µg/mL	–	–
GBR VH3(V37A)VL1 (antibody, human IgG1, kappa) heavy: EVQLLESGGGLVQPGGSLRLSCAASGFTFSTYTMSWARQTPGKRLEWVAYISKGGGSTYYPDTVKGRFTISRDNSKNTLYLQMNSLRAEDTAVYYCAKGAMYGNDFFYPMDYWGQGTTVTVSS[human IgG1 constant region not listed] light: EIVLTQSPATLSLSPGERATLSCSASSSVSYMHWYQQKPGQAPRLLIYTTSNLASGIPARFSGSGSGTDFTLTISSLEPEDFAVYYCHQWSSYPWTFGQGTKLEIKRTVAAPSVFIFPPSDEQLKSGTASVVCLLNNFYPREAKVQWKVDNALQSGNSQESVTEQDSKDSTYSLSSTLTLSKADYEKHKVYACEVTHQGLSSPVTKSFNRGEC	0.15 µg/mL	–	–
GBR VH3(V37A)VL3 (antibody, human IgG1, kappa) heavy: EVQLLESGGGLVQPGGSLRLSCAASGFTFSTYTMSWARQTPGKRLEWVAYISKGGGSTYYPDTVKGRFTISRDNSKNTLYLQMNSLRAEDTAVYYCAKGAMYGNDFFYPMDYWGQGTTVTVSS[human IgG1 constant region not listed] light: QIVLTQSPATLSLSPGERATLSCSASSSVSYMHWYQQKPGQSPRLLIYTTSNLASGIPSRFSGSGSGTFYTLTISSLEPEDFAVYYCHQWSSYPWTFGGGTKLEIKRTVAAPSVFIFPPSDEQLKSGTASVVCLLNNFYPREAKVQWKVDNALQSGNSQESVTEQDSKDSTYSLSSTLTLSKADYEKHKVYACEVTHQGLSSPVTKSFNRGEC	0.29 µg/mL	–	–
GBR VH5(K3Q, V37A)VL1 (antibody, human IgG1, kappa) heavy: EVQLLESGGGLVQPGGSLRLSCAASGFTFSTYTMSWARQTPGKRLEWVAYISKGGGSTYYPDTVKGRFTISRDNSKNTLYLQMNSLRAEDTAVYYCARGAMYGNDFFYPMDYWGQGTTVTVSS[human IgG1 constant region not listed] light: EIVLTQSPATLSLSPGERATLSCSASSSVSYMHWYQQKPGQAPRLLIYTTSNLASGIPARFSGSGSGTDFTLTISSLEPEDFAVYYCHQWSSYPWTFGQGTKLEIKRTVAAPSVFIFPPSDEQLKSGTASVVCLLNNFYPREAKVQWKVDNALQSGNSQESVTEQDSKDSTYSLSSTLTLSKADYEKHKVYACEVTHQGLSSPVTKSFNRGEC	0.15 µg/mL	–	–
GBR VH5(K3Q, V37A)VL1 IGHG4 S228P (antibody, human IgG4 S228P, kappa) heavy: EVQLLESGGGLVQPGGSLRLSCAASGFTFSTYTMSWARQTPGKRLEWVAYISKGGGSTYYPDTVKGRFTISRDNSKNTLYLQMNSLRAEDTAVYYCARGAMYGNDFFYPMDYWGQGTTVTVSSASTKGPSVFPLAPCSRSTSESTAALGCLVKDYFPEPVTVSWNSGALTSGVHTFPAVLQSSGLYSLSSVVTVPSSSLGTKTYTCNVDHKPSNTKVDKRV[human IgG4 Fc with S228P (EU numbers) not listed] light: EIVLTQSPATLSLSPGERATLSCSASSSVSYMHWYQQKPGQAPRLLIYTTSNLASGIPARFSGSGSGTDFTLTISSLEPEDFAVYYCHQWSSYPWTFGQGTKLEIKRTVAAPSVFIFPPSDEQLKSGTASVVCLLNNFYPREAKVQWKVDNALQSGNSQESVTEQDSKDSTYSLSSTLTLSKADYEKHKVYACEVTHQGLSSPVTKSFNRGEC	0.15 µg/mL	–	–
GBR VH5(V37A)VL3 (antibody, human IgG1, kappa) heavy: EVKLLESGGGLVQPGGSLRLSCAASGFTFSTYTMSWARQTPGKRLEWVAYISKGGGSTYYPDTVKGRFTISRDNSKNTLYLQMNSLRAEDTAVYYCARGAMYGNDFFYPMDYWGQGTTVTVSS[human IgG1 constant region not listed] light: QIVLTQSPATLSLSPGERATLSCSASSSVSYMHWYQQKPGQSPRLLIYTTSNLASGIPSRFSGSGSGTFYTLTISSLEPEDFAVYYCHQWSSYPWTFGGGTKLEIKRTVAAPSVFIFPPSDEQLKSGTASVVCLLNNFYPREAKVQWKVDNALQSGNSQESVTEQDSKDSTYSLSSTLTLSKADYEKHKVYACEVTHQGLSSPVTKSFNRGEC	0.22 µg/mL	–	–
